Several values for one entry are separate records, joined by “and”; a condition that tells them apart may be missing. Equal entries are not always repeated. The shares of active, inactive and inconclusive entries below differ from those in the screen. Where the call is inconclusive, the potency comes from a doubtful curve fit. Activity calls are given as the source filed them. The call rests on the fitted dose curve; in most records, active means well fitted curve in the direction sought with a large enough effect; inconclusive means small, poorly fitted or top-dose-only effect, or another doubt; inactive means no such curve, though single readings can be large; an effect the other way counts as inactive or inconclusive.
How the values were obtained:
[1] = Viability qHTS for spleen associated tyrosine kinase inhibitor (SYKi) naive MV4-11 cells (AID 1963823); further: nearly all actives have a fitted effect of over 40% in size
Procedure, shortened: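 SYKi-naive MV4-11 AML cells, 500 per well, were exposed to library compounds for 72 hr at 37 C, 5% CO2. Viability was then read by CellTiter-Glo luminescence after 10 min at room temperature.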

[2] = Viability qHTS for spleen associated tyrosine kinase inhibitor (SYKi) drug resistant MV4-11 cells (AID 1963824); further: nearly all actives have a fitted effect of over 35% in size
Procedure, shortened: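 CellTiter-Glo luminescence, read 10 min after reagent addition, reports viability after a 72 hr compound exposure. Cells are an MV4-11 line made resistant to SYK inhibition, seeded at 500 per well onto compound-containing plates.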

[3] = Quantitative highthroughput screen to assess conditional lethalithy of NOMO1 cells grown in RPMI1640 with untreated serum (RPMI+s) (AID 1963876); further: nearly all actives have a fitted effect of over 35% in size
Procedure, shortened: (§1)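 Each medium arm—HPLM with 10% dialyzed FBS, or RPMI1640 with 5 mM glucose and 10% untreated or dialyzed FBS—was screened against an 11-point, 3-fold compound titration for 48 h at 37 °C, with CellTiter-Glo luminescence as endpoint.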

[4] = Quantitative highthroughput screen to assess conditional lethalithy of NOMO1 cells grown in RPMI1640 with dialyzed fetal bovine serum (RPMI+ds) (AID 1963877); further: nearly all actives have a fitted effect of over 30% in size;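 on Viability: 100% = DMSO control wells and 0% = empty wells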
Procedure, shortened: as §1

[5] = Quantitative highthroughput screen to assess conditional lethalithy of NOMO1 cells grown in Human Plasma-Like Medium with dialyzed fetal bovine serum (HPLM+ds) (AID 1963878); further: nearly all actives have a fitted effect of over 35% in size;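 on Viability: 100% = DMSO wells and 0% = empty wells on each plate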
Procedure, shortened: as §1

[6] = Quantitative highthroughput screen to assess conditional lethalithy of SEM cells grown in Human Plasma-Like Medium with dialyzed fetal bovine serum (HPLM+ds) (AID 1963882); further: nearly all actives have a fitted effect of over 35% in size
Procedure, shortened: as §1

[7] = Quantitative highthroughput screen to assess conditional lethalithy of SEM cells grown in RPMI1640 with unreated serum (RPMI+s) (AID 1963883); further: nearly all actives have a fitted effect of over 35% in size;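 on Viability: 100% = DMSO wells and 0% = empty wells without cells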
Procedure, shortened: as §1

[8] = Quantitative highthroughput screen to assess conditional lethalithy of P12 Ichikawa cells grown in RPMI1640 with dialyzed fetal bovine serum (RPMI+ds) (AID 1963880); details: Potency: P12-Ichikawa viability; further: nearly all actives have a fitted effect of over 35% in size;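 on Viability: 100% = DMSO wells and 0% = empty wells on each plate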
Procedure, shortened: as §1

[9] = Quantitative highthroughput screen to assess conditional lethalithy of P12 Ichikawa cells grown in RPMI1640 with untreated serum (RPMI+s) (AID 1963881); details: Potency: viability; further: nearly all actives have a fitted effect of over 35% in size;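 on Viability: 100% = DMSO wells and 0% = empty wells without cells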
Procedure, shortened: as §1

[10] = Quantitative highthroughput screen to assess conditional lethalithy of SEM cells grown in RPMI1640 with dialyzed fetal bovine serum (RPMI+ds) (AID 1963884); further: nearly all actives have a fitted effect of over 35% in size;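 on Viability: 100% = DMSO control wells and 0% = empty wells without cells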
Procedure, shortened: as §1

[11] = Cellular viability qHTS for adrenocortical cancer (ACC) cell line SW-13 (AID 1963989); details: SW-13 ACC cells viability, CellTiter-Glo, 48 h; activity (max response): stronger effect = lower value; further: nearly all actives have a fitted effect of over 65% in size;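 on activity (max response): cells grown in serum-free medium with ITS supplement; on the % scale 0 is the no-effect control and ±100 the full control effect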
Procedure, shortened: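 IC50 and maximal-response values come from four-parameter logistic fits of titration data. SW-13 cells in serum-free medium received compounds (up to 46 uM final) for 48 h before CellTiter-Glo luminescence.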

[12] = Cellular viability qHTS for adrenocortical cancer (ACC) cell line NCI-H295R (AID 1963990); details: CellTiter-Glo ATP luminescence, 48 h; activity change, negative = viability loss: at 46.1 µM (top of the series); further: nearly all actives have a fitted effect of over 60% in size;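 on activity change, negative = viability loss: 0% = DMSO only wells and -100% = full killing with cytotoxic reference compound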
Procedure, shortened: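 Adrenocortical carcinoma cells, suspended at 300 000 cells/mL in serum-free DMEM plus ITS, rested overnight before pin transfer of compound. After two days' incubation, ATP-dependent luminescence was recorded and curve-fitted.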

[13] = Quantitative highthroughput screen to assess conditional lethalithy of P12 Ichikawa cells grown in Human Plasma-Like Medium with dialyzed fetal bovine serum (HPLM+ds) (AID 1963879); details: Potency: viability; further: nearly all actives have a fitted effect of over 35% in size
Procedure, shortened: as §1
Potency means the concentration at half of the fitted maximal effect; tags describe the fitted curve by direction and shape.

C=C1CC[C@H]2[C@@H](/C=C(\C)C(=O)[C@@]3(OC(C)=O)C[C@H](C)[C@H](OC(=O)c4ccccc4)[C@@H]3[C@H]1OC(C)=O)C2(C)C
Potency [1]: inconclusive: 8.93 µM [cytotoxic, single point]
Potency [2]: inconclusive: 8.93 µM [cytotoxic, partial curve, poor fit]

C[C@]12CC[C@@H]3[C@@H](CCC4=CC(=O)CC[C@@H]43)[C@@H]1CC[C@@H]2OC(=O)CCc1ccccc1
Potency [1]: inconclusive: 26.3 µM [cytotoxic, single point]
Potency [2]: inconclusive: 29.5 µM [cytotoxic, single point]
Potency [3]: inconclusive: 33.2 µM [cytotoxic, single point]
Potency [4]: inconclusive: 37.2 µM [cytotoxic, single point]
Potency [5]: inconclusive: 33.2 µM [cytotoxic, single point]
Potency [6]: inactive
Potency [7]: inactive

Cc1cccc(C)c1NC(=O)CN1CCCC1=O
Potency [1]: inconclusive: 16.8 µM [cytotoxic, partial curve, poor fit] and inactive
Potency [2]: inactive
Potency [4]: inactive
Potency [8]: inactive
Potency [9]: inactive

Cn1cc(C2=C(c3cn(C4CCN(Cc5ccccn5)CC4)c4ccccc34)C(=O)NC2=O)c2ccccc21
Potency [1]: inconclusive: 5.31 µM [cytotoxic, partial curve] and inconclusive: 1.84 µM [cytotoxic, full curve] and inconclusive: 2.09 µM [cytotoxic, full curve, poor fit]
Potency [2]: inconclusive: 9.44 µM [cytotoxic, partial curve] and inconclusive: 2.31 µM [cytotoxic, full curve]
Potency [5]: inactive
Potency [6]: inconclusive: 11.8 µM [cytotoxic, single point]
Potency [10]: active: 5.9 µM
activity (max response) [11]: inactive: -7.67% and inactive: -14.7%

Cc1ncc(OC[C@@]2(c3cccc(F)c3)C[C@H]2C(=O)Nc2ccc(F)cn2)c(C)n1
Potency [1]: inactive
Potency [2]: inactive
Potency [4]: inactive

CC(=O)Nc1ccc(OC[C@](C)(O)C(=O)Nc2ccc([N+](=O)[O-])c(C(F)(F)F)c2)cc1
Potency [1]: active: 16.6 µM
Potency [2]: inconclusive: 23.1 µM [cytotoxic, single point]
Potency [4]: inactive
Potency [9]: inactive
Potency [6]: inactive
Potency [7]: inconclusive: 37.2 µM [cytotoxic, single point]
Potency [10]: inconclusive: 37.2 µM [cytotoxic, single point]

COCC1(CO)C(=O)C2CCN1CC2 (stereo not drawn)
Potency [1]: inconclusive: 2.09 µM [cytotoxic, full curve]
Potency [2]: inconclusive: 4.68 µM [cytotoxic, full curve]
Potency [3]: active: 20.9 µM
Potency [5]: inconclusive: 13.2 µM [cytotoxic, partial curve]
Potency [6]: inconclusive: 20.9 µM [cytotoxic, partial curve, poor fit]
Potency [7]: inconclusive: 18.7 µM [cytotoxic, partial curve, poor fit]
Potency [10]: inconclusive: 16.6 µM [cytotoxic, partial curve, poor fit]
activity (max response) [11]: inactive: 9.27%
Potency [12]: inconclusive: 35.5 µM [cytotoxic, single point]

CC(N[C@H]1C[C@H]1c1ccccc1)c1ccc2c(c1)OCCO2 (stereo partly drawn)
Potency [1]: inconclusive: 9.2 µM [cytotoxic, partial curve, poor fit]
Potency [2]: inconclusive: 2.31 µM [cytotoxic, partial curve, poor fit]
Potency [4]: inactive
Potency [10]: inactive

CC(C)C[C@H](CN)CC(=O)O
Potency [1]: inactive
Potency [2]: inactive
Potency [4]: inactive
Potency [8]: inactive

Cc1sc2c(c1C)C(c1ccc(Cl)cc1)=N[C@@H](CC(=O)OC(C)(C)C)c1nnc(C)n1-2
Potency [1]: active: 0.105 µM
Potency [2]: active: 0.118 µM
Potency [5]: active: 0.418 µM
Potency [6]: active: 0.166 µM
Potency [7]: active: 0.235 µM
Potency [11]: inconclusive: 25.1 µM [cytotoxic, single point]

O=C(N[C@H]1CN2CCC1CC2)c1ccc(Cl)cc1
Potency [1]: inactive
Potency [2]: inactive
Potency [5]: inconclusive: 20.9 µM [cytotoxic, partial curve, poor fit]
Potency [7]: inconclusive: 26.4 µM [cytotoxic, single point]
Potency [12]: inactive

O=C(Oc1ccc([N+](=O)[O-])cc1)N1CCC(C(O)(c2ccc3c(c2)OCO3)c2ccc3c(c2)OCO3)CC1
Potency [1]: inconclusive: 13.2 µM [cytotoxic, partial curve]
Potency [2]: inconclusive: 14.6 µM [cytotoxic, partial curve, poor fit] and inconclusive: 18.6 µM [cytotoxic, partial curve]
Potency [5]: inconclusive: 23.5 µM [cytotoxic, partial curve, poor fit]
Potency [8]: inactive

COc1cc([C@@H]2c3cc4c(cc3[C@@H](O)C3COC(=O)C32)OCO4)cc(OC)c1O (stereo partly drawn)
Potency [1]: inconclusive: 0.118 µM [cytotoxic, full curve, poor fit]
Potency [2]: inconclusive: 0.417 µM [cytotoxic, full curve]
Potency [4]: inconclusive: 0.235 µM [cytotoxic, full curve, poor fit]
Potency [5]: inconclusive: 0.0118 µM [cytotoxic, full curve, poor fit]
Potency [13]: inconclusive: 0.0105 µM [cytotoxic, full curve, poor fit]
Potency [8]: inconclusive: 0.0132 µM [cytotoxic, full curve, poor fit]
Potency [9]: inconclusive: 0.0118 µM [cytotoxic, full curve, poor fit]
Potency [6]: inconclusive: 0.0118 µM [cytotoxic, full curve, poor fit]
Potency [7]: inconclusive: 0.0132 µM [cytotoxic, full curve, poor fit]
Potency [10]: inconclusive: 0.0132 µM [cytotoxic, full curve, poor fit]
Potency [12]: inconclusive: 0.178 µM [cytotoxic, full curve, poor fit]

CC(C)N(CCNC(=O)CN1CCCC1=O)C(C)C
Potency [1]: inactive
Potency [2]: inactive
Potency [5]: inactive
Potency [13]: inactive
Potency [6]: inactive
Potency [10]: inactive

c1ccc2c(CN3CCNCC3)cccc2c1
Potency [1]: inconclusive: 16.6 µM [cytotoxic, partial curve, poor fit]
Potency [2]: inconclusive: 18.6 µM [cytotoxic, partial curve, poor fit]
Potency [3]: inconclusive: 18.7 µM [cytotoxic, partial curve]
Potency [5]: inactive
Potency [8]: inconclusive: 37.2 µM [cytotoxic, single point]
Potency [9]: inconclusive: 33.2 µM [cytotoxic, single point]
Potency [6]: inactive

CC(C)(C)c1cc(C=C(C#N)C#N)cc(Br)c1O
Potency [1]: inconclusive: 20.6 µM [cytotoxic, partial curve]
Potency [2]: inconclusive: 25.9 µM [cytotoxic, single point]
Potency [4]: inactive
Potency [8]: inactive
Potency [6]: inactive
Potency [7]: inactive
Potency [12]: inactive

Cc1cc(SCc2sc(-c3ccc(C(F)(F)F)c(F)c3)nc2C)ccc1OCC(=O)O
Potency [1]: inconclusive: 20.9 µM [cytotoxic, partial curve] and inconclusive: 25.9 µM [cytotoxic, partial curve]
Potency [2]: inconclusive: 16.4 µM [cytotoxic, partial curve]
Potency [5]: inactive
Potency [13]: inactive
Potency [10]: inactive
activity (max response) [11]: inactive: -20.9%
Potency [12]: inactive

O=C1C=CC[C@@H]2[C@H]3CCCN4CCC[C@@H](CN12)[C@@H]34
Potency [1]: inconclusive: 2.63 µM [cytotoxic, full curve, poor fit]
Potency [2]: inconclusive: 2.95 µM [cytotoxic, full curve, poor fit]
Potency [5]: inactive
Potency [12]: inactive

CSCC[C@@H](NC(=O)[C@@H](Cc1ccccc1)NC(=O)CNC(=O)CNC(=O)[C@@H](N)Cc1ccc(O)cc1)C(=O)O
Potency [1]: inactive
Potency [2]: inactive
Potency [6]: inconclusive: 0.0418 µM [rising, full curve, poor fit]
Potency [7]: inconclusive: 0.0418 µM [rising, full curve, poor fit]
Potency [10]: inconclusive: 0.0469 µM [rising, full curve, poor fit]

CC(O)(CS(=O)(=O)c1ccc(F)cc1)C(=O)Nc1ccc(C#N)c(C(F)(F)F)c1 (stereo not drawn)
Potency [1]: inconclusive: 18.6 µM [cytotoxic, partial curve]
Potency [2]: inconclusive: 20.9 µM [cytotoxic, partial curve]
Potency [5]: inconclusive: 23.5 µM [cytotoxic, single point]
Potency [8]: inconclusive: 16.6 µM [cytotoxic, partial curve]
Potency [9]: inconclusive: 23.5 µM [cytotoxic, single point]
Potency [10]: inconclusive: 14.8 µM [cytotoxic, partial curve]
Potency [11]: inconclusive: 31.6 µM [cytotoxic, single point]

Cc1c(C(=O)Nc2cccc(C(F)(F)F)c2)cc(-c2ccccc2)n1CCCN1CCOCC1
Potency [1]: active: 14.6 µM
Potency [2]: active: 16.6 µM
Potency [4]: inconclusive: 18.7 µM [cytotoxic, partial curve, poor fit]
Potency [5]: inactive
Potency [7]: inconclusive: 20.9 µM [cytotoxic, partial curve]
Potency [10]: inconclusive: 20.9 µM [cytotoxic, partial curve]
Potency [11]: inconclusive: 25.1 µM [cytotoxic, single point]
Potency [12]: inconclusive: 35.5 µM [cytotoxic, single point]

CN[C@@H]1Cc2cccc3[nH]c(=O)n(c23)C1
Potency [1]: inactive
Potency [2]: inactive
Potency [8]: inactive
Potency [6]: inactive
Potency [10]: inactive

CCN(CC)C(=O)c1ccc(C2=CC3(CCNCC3)Oc3cccc(O)c32)cc1
Potency [1]: inconclusive: 7.42 µM [cytotoxic, full curve]
Potency [2]: inconclusive: 7.42 µM [cytotoxic, full curve]
Potency [5]: inconclusive: 0.0469 µM [cytotoxic, full curve]
Potency [7]: inactive

— PubChem BioAssay (NCATS)
